Consider 111 molecules from PubChem BioAssay AID488969 (Vanderbilt High Throughput Screening Facility, 2010).

The structures appear in SMILES notation. Over roughly 110,000 compounds, “z-score” has its median near -0.1; the highest 2% begin near 2. The list shows a part of the results. Active and inactive are the calls of the source.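 Rule for the calls: active = z-score in the third read window above 3 or below -3; inactive = the rest.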

The assay deals with Metabotropic glutamate receptor 8 (Rattus norvegicus) (UniProt P70579). The assay is described as follows: rat mGluR8 modulators via GIRK flux, primary screen, cell-based, thallium flux, HTS (AID 488969). The note with it: HEK293 rat mGluR8, GIRK (G protein-gated inwardly rectifying potassium channel) thallium flux, FluoZin2; at 10 µM; stronger effect = higher value; submaximal glutamate (EC20) added with thallium.
Sequence of UniProt P70579 (P70579 whole entry, looked up): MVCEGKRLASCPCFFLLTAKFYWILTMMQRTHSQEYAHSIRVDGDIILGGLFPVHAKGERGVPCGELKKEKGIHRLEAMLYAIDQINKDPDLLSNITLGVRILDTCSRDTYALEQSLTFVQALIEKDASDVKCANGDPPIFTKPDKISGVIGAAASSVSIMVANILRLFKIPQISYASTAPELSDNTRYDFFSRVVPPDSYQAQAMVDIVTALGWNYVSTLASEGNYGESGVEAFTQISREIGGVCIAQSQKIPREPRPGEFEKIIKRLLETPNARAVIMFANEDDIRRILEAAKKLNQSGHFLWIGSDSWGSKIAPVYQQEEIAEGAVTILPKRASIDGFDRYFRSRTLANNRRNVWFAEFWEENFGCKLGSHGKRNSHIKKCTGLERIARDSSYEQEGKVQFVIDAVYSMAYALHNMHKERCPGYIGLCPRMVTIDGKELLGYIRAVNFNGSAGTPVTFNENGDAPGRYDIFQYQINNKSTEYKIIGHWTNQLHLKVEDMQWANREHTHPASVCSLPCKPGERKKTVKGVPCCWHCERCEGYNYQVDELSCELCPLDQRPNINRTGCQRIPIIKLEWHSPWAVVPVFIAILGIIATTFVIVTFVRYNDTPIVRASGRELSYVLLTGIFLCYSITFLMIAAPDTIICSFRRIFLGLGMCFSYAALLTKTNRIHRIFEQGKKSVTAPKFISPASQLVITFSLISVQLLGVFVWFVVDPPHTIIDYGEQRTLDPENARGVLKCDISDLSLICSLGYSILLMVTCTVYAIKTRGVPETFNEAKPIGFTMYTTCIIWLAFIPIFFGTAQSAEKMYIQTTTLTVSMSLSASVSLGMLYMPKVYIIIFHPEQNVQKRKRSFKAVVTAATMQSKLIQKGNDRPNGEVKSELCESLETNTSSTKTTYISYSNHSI
As for `CCN(CC)CCOc1nc(C)nc2c1oc1ccccc12`, the z-score was determined as 1.01.

`CCOC(=O)CSc1nnnn1-c1cccc2ccccc12` came in with a z-score of -0.988.

`CC(C)CC(=O)Nc1nc(=S)ss1` yielded a z-score of 0.664.

With `C[N+]1(C)CC2([N+](=O)[O-])CC=C(Oc3ccccc3)C([N+](=O)[O-])(C2)C1` (stereo unspecified), the z-score is -0.0235.

On to `CCOc1ccc(/C=C/C(=O)Nc2ccccc2C(F)(F)F)cc1`, for which the z-score turned out to be 0.275.

In turn, `O=C(Nc1cc(Cl)ccc1Cl)C1CC(=O)N(c2ccc(Br)cc2)C1` (stereo unspecified) displayed a z-score of -0.113.

`O=C1CC(c2ccc(S(=O)(=O)NC3CC3)cc2)CN1` (stereo unspecified) registered a z-score of 0.38.

Molecule `Cc1ccc(C(C(=O)Nc2ccc3c(c2)OCO3)N(C)C(=O)Cc2c[nH]c3ccccc23)cc1` (stereo unspecified) yielded a z-score of -0.000845.

As for `COC(=O)C(C)Oc1ccc(=O)[nH]n1` (stereo unspecified), the z-score is 0.923.

For `Cc1sc2c(c1C)C(=O)NC(c1cccc(O)c1)N2` (stereo unspecified), the z-score stood at 1.67.

`O=c1c2ccccc2oc2nc(-c3cccs3)n(CCc3ccccc3)c(=O)c12`: the z-score was -0.464.

The molecule `N#Cc1c(NC2CCCCC2)nc(-c2ccco2)c2c1CCCC2` returned a z-score of -0.268.

For `CC1CCCCN1S(=O)(=O)c1ccc(S(=O)(=O)N(Cc2ccccc2)Cc2ccco2)cc1` (stereo unspecified), the z-score was determined as 0.0863.

Turning to `Cc1ccc(N(CC(=O)N2CCN(C3CCCCC3)CC2)S(=O)(=O)c2cccnc2)cc1`, the z-score was -0.0181.

`COc1cc(C(=O)Nc2ccc(S(=O)(=O)N3CCCCC3C)cc2)cc(OC)c1OC` (stereo unspecified) had a z-score of -0.162.

In the case of `Cc1oc(-c2ccccc2F)nc1CS(=O)(=O)CC(=O)NCCN(C)C1CCCCC1`, the z-score worked out at 1.48.

The molecule `Cc1ccc(Cl)cc1NC(=O)CCC(=O)Nc1cc(Cl)ccc1C` showed a z-score of -0.263.

Turning to `Cc1ccc(S(=O)(=O)NNC(=O)C2CCN(S(=O)(=O)c3ccc(C)cc3)CC2)cc1`, the z-score is -0.363.

For `Nc1nc(SCC(=O)N2CCCC2)[nH]c(=O)c1-c1ccccc1`, the z-score is -0.0491.

On to `CC1(CC(=O)N/N=C/c2ccc(-c3ccc(Cl)cc3)o2)OCCO1`, for which the z-score was found to be 1.57.

Regarding `Cc1ccc(NC(=O)c2cc3ccccc3o2)cc1S(=O)(=O)N(C)C`, the z-score was -0.399.

Take `COCCN(C(=S)Nc1ccc(OC)cc1)C1CCN(C(C)=O)CC1`: the z-score came to 0.181.

On to `COC(=O)N1CC(c2ccccc2)CC1=O` (stereo unspecified), for which the z-score is 1.03.

The molecule `Cc1cc(C)cc(OCC(=O)Nc2ccccc2N2CCCCC2)c1` returned a z-score of -0.0189.

In the case of `Cc1noc(C)c1S(=O)(=O)N1CCCC(C(=O)NCc2ccccn2)C1` (stereo unspecified), the z-score is 0.292.

Molecule `C=CCC(Nc1ccco1)c1ccccc1` (stereo unspecified) gave a z-score of -0.144.

In the case of `COc1cccc(-c2nnc(SCC(=O)Nc3ccc4c(c3)OCCO4)n2Cc2ccco2)c1`, the z-score is -1.33.

Consider `CC1CN(C(=O)C2CCCCC2)C(C)CN1C(=O)C1CCCCC1` (stereo unspecified), for which the z-score is active: 11.1.

`O=C(CSc1nc2ccccc2c(=O)n1-c1ccccc1)N1CCN(CCO)CC1` registered a z-score of -0.68.

The molecule `COc1ccc(S(=O)(=O)c2cnc3ccc(OC)cc3c2N2CCC3(CC2)OCCO3)cc1` displayed a z-score of -1.24.

Take `CCSc1ccccc1C(=O)NCc1ccc(S(N)(=O)=O)cc1`: the z-score stood at 0.131.

`Fc1ccccc1CSc1ncnc2sc3c(c12)CCCC3` gave a z-score of -0.212.

`COc1cc(O)oc1C=Nc1ccccc1` yielded a z-score of -0.0368.

As for `Cc1ccc(Nc2nc(OC(C(F)(F)F)C(F)(F)F)nc(N3CCOCC3)n2)cc1`, the z-score was 0.581.

In the case of `O=S1(=O)CC(O)C(N2CCC(c3ccccc3)CC2)C1` (stereo unspecified), the z-score is 0.737.

In turn, `Cc1ccc(S(=O)(=O)CC(=O)N2CCCC2)cc1` came in with a z-score of -0.0858.

Molecule `CC(=O)O[C@H]1CC[C@@]2(C)C(CCC3C2CC[C@]2(C)OC(=O)CCC32)C1` (stereo partly specified) came in with a z-score of -0.388.

With `CCn1c(SCC(=O)N(Cc2ccccc2)C2CCS(=O)(=O)C2)nc2ccccc2c1=O` (stereo unspecified), the z-score is 0.0946.

Take `Cc1csc(N(C)C(=O)CSc2nnc(COc3ccccc3C)o2)n1`: the z-score was determined as 0.03.

Take `O=C(NCc1ccco1)C(Cc1ccccc1)N1C(=O)c2ccccc2C1=O` (stereo unspecified): the z-score was -1.05.

With `COCCNC(=O)CN1CCN(Cc2cccc(Cl)c2)C1=O`, the z-score worked out at 0.748.

Regarding `COC(=O)c1ccccc1NC(=O)CNC(=O)c1ccco1`, the z-score was -0.308.

For `Cc1ccc2c(c1)[nH]c1c(=O)n(Cc3ccccn3)cnc12`, the z-score is -0.835.

On to `CC(C)c1ccc(-c2cc(C(=O)N3N=C(C(F)F)CC3(O)C(F)F)c3ccccc3n2)cc1` (stereo unspecified), for which the z-score was -0.144.

As to `COc1cc(/C=N\NC(=O)C2CC3C=CC2C3)ccc1O` (stereo unspecified), the z-score is -0.0835.

For the molecule `CCC(=O)Nc1c(S(=O)(=O)c2ccccc2)c2nc3ccccc3nc2n1Cc1ccccc1`, the z-score was -0.5.

`CCOC(=O)c1c2ccc(OCC(=O)N/N=C/c3ccccc3C(F)(F)F)cc2n2ccccc12` came in with a z-score of -0.472.

Molecule `COc1ccccc1C(C)NC(=O)c1ccc(C)o1` (stereo unspecified) registered a z-score of -0.152.

For `Cn1c(SCCCC(=O)c2ccc(Br)cc2)nnc1-c1ccncc1`, the z-score was -0.186.

`COc1cccc(-n2c(N)c(C#N)c3ccc([N+](=O)[O-])cc3c2=O)c1` returned a z-score of 0.0503.

For `Cc1ccc(CNC(=O)C2CCC(=O)N2CCc2ccccc2)cc1` (stereo unspecified), the z-score came to 0.123.

Turning to `COCCSc1nnc(NC(=O)Cc2cccs2)s1`, the z-score amounted to 0.124.

`COc1ccccc1NC(=O)N1CCN(c2cc(-c3ccccc3)nc3ncnn23)CC1` displayed a z-score of -1.42.

For `CC1CCN(Cc2nc3c(c(=O)n(C)c(=O)n3C)n2CCCc2ccccc2)CC1`, the z-score is -0.163.

For the molecule `CCOC(=O)C1(C)NC(c2ccc(N(C)C)cc2)C2C(=O)N(CC)C(=O)C21` (stereo unspecified), the z-score is -0.204.

As to `COCCN1C(=O)c2ccccc2C(C(=O)N2CCN(c3ccccc3)CC2)C1c1ccc(F)cc1` (stereo unspecified), the z-score was -0.216.

On to `O=S(=O)(c1ccc(Nc2ccc(-c3ccc4c(c3)OCCO4)nn2)cc1)N1CCCC1`, for which the z-score is -0.0326.

Consider `Cc1nnn(C23CC4CC(CC(CC(=O)Nc5ccc(C)c(Cl)c5)(C4)C2)C3)n1`, for which the z-score is -0.593.

Take `COc1ccc2cc(/C=C3\SC(=S)NC3=O)c(N3CCOCC3)nc2c1`: the z-score was 0.195.

The molecule `CCOC(=O)c1c(-c2ccc(OC)cc2)csc1NC(=O)CSc1ncnc2sccc12` returned a z-score of -0.0957.

In the case of `CC(=O)Nc1ccc(S(=O)(=O)N2CCCc3ccccc32)cc1`, the z-score came to 0.436.

Molecule `COc1ccc(-c2nc(N3CCCC3)[nH]c(=O)c2C#N)cc1` returned a z-score of 0.353.

`CCOC(=O)c1c(NC(=O)CSc2nnc(C)s2)sc2c1CCC(C)C2` (stereo unspecified) had a z-score of -0.619.

`COc1ccc(C2CC(c3ccc(Br)cc3)=NN2C(=O)c2cccnc2)cc1` (stereo unspecified): the z-score was -0.107.

Molecule `Cc1oc(-c2ccccc2)cc1C(=O)NC(Cc1c[nH]c2ccccc12)C(=O)O` (stereo unspecified) registered a z-score of -0.00352.

In turn, `c1ccc(C2Nc3ccccc3Oc3ccccc32)cc1` (stereo unspecified) gave a z-score of -0.102.

`COc1ccc(CNC(=O)Cn2cc([N+](=O)[O-])nc2C)cc1`: the z-score is -0.0622.

`CCOc1ccccc1CNCCN1CCOCC1` gave a z-score of 0.261.

With `Cc1cccc(NC(=O)c2cc(NC(=O)c3ccco3)ccc2N2CCCCC2)c1`, the z-score is -0.0292.

Molecule `COc1cc(CNCCSc2nnnn2C)cc(Br)c1OCc1ccccc1F` had a z-score of 0.913.

On to `Cc1onc(-c2c(F)cccc2Cl)c1C(=O)NCCCN1CCOCC1`, for which the z-score is -0.318.

`CCn1cc(C2=NOC(C(=O)Nc3ccccc3C(=O)OC)C2)c(C)n1` (stereo unspecified) showed a z-score of -0.574.

In turn, `CCOc1cc(CNCCO)cc(Br)c1OCc1ccccc1Cl` registered a z-score of 0.439.

`Cc1nc2c(n1C1CCCCC1)C(=O)c1ccccc1C2=O` yielded a z-score of -0.358.

`CC[n+]1ccc(C[n+]2ccccc2)c2ccccc21` showed a z-score of -0.112.

Take `O=C(COc1nc2ccccc2nc1N1CCOCC1)Nc1cccc(S(=O)(=O)N2CCCCC2)c1`: the z-score worked out at 0.0921.

In turn, `CCC1(CC)C(=O)NC(=O)NC1=NCCc1ccc(O)cc1` came in with a z-score of -0.138.

Molecule `CCOC(=O)c1cc(OC(=O)c2cccnc2)n(-c2ccccc2)n1` yielded a z-score of -0.265.

For the molecule `O=[N+]([O-])c1cccc(S(=O)(=O)NCC2CCCO2)c1` (stereo unspecified), the z-score came out at 0.197.

`CCC(C)OC(=O)C1=C(C)NC(=O)CC1c1ccccc1OC` (stereo unspecified) showed a z-score of -0.413.

On to `O=C1Cn2c(nc3ccccc32)N1c1cccc(C(F)(F)F)c1`, for which the z-score stood at 1.

The molecule `CN1C(=O)c2ccc(N(C)C)cc2C1=O` yielded a z-score of 0.32.

As to `CCC(NC(=O)C1CCC1)c1ccc(C)cc1` (stereo unspecified), the z-score was -0.0362.

`Cc1cc(C)nc(SCCS(=O)Cc2ccc(Cl)cc2)n1` (stereo unspecified) registered a z-score of 0.424.

`O=S(=O)(c1ccccc1)N1CCN(c2ncccn2)CC1` registered a z-score of -0.134.

The molecule `Cc1ccc(CN(C)C(=O)c2ccccc2Oc2ccccc2)o1` had a z-score of -0.179.

`CCOC(=O)CCC(=O)c1c(C)oc2ccc(OC)cc12` displayed a z-score of -0.286.

The molecule `COc1ccc(/C=C/C(=O)c2ccc3c4c(cccc24)CC3)cc1` came in with a z-score of 0.191.

As to `C(=N\Nc1nc(-c2ccccc2)cs1)/c1cccs1`, the z-score was -0.0376.

As for `CCOc1ccc(NC(=O)CNC(=O)COc2ccccc2)cc1`, the z-score worked out at 1.77.

As to `O=C(NC1CCS(=O)(=O)C1)Oc1ccc(Cl)cc1` (stereo unspecified), the z-score was -0.219.

Molecule `O=C(CCN1C(=O)C2CC=C(Cl)CC2C1=O)N1CCCCC1` (stereo unspecified) came in with a z-score of -0.175.

In turn, `COc1ccc(OC)c(C2C(C(C)=O)=C(O)C(=O)N2CCN2CCOCC2)c1` (stereo unspecified) came in with a z-score of -0.0658.

As to `CCn1ncc(Br)c1C(=O)NC(C)c1ccccc1` (stereo unspecified), the z-score was found to be 0.000248.

With `Cc1cc(Oc2ccccc2)nc(-c2ccccc2O)n1`, the z-score is 0.13.

Take `CCOC(=O)C1CCN(C(=O)CCNC(=O)Cn2ccc3ccccc3c2=O)CC1`: the z-score was 0.0162.

In turn, `COc1ccc(CCNC(=O)CCNC(=O)c2ccc(Cl)cc2)cc1OC` showed a z-score of -0.0322.

The molecule `C=CCn1c(SCC(=O)N2CCCC2)nc2cc(C(=O)NCC3CCCO3)ccc2c1=O` (stereo unspecified) came in with a z-score of -0.372.

`COc1ccc(CCNC(=O)C/C(C)=N/NC(=O)c2ccc(N)cc2)cc1OC` returned a z-score of -0.213.

`CCc1nc(N2CCCCC2C)c2oc3ccccc3c2n1` (stereo unspecified) displayed a z-score of -0.175.

Turning to `CN(Cc1ccco1)C(=O)c1ccc(N2CCCC2=O)cc1`, the z-score is -0.119.

For the molecule `COc1cc(CNn2cn[nH]c2=S)cc(Cl)c1OCc1ccc(F)cc1`, the z-score was -0.0761.

In turn, `O=C(CCn1c(=O)sc2ccccc21)Nc1nccs1` yielded a z-score of -0.657.

As to `CN1C(=O)OC(C)(CCc2ccccc2)C1(C)O` (stereo unspecified), the z-score was -0.0618.

For `Cc1cc(C)cc(NC(=O)c2ccc(CNc3c(N4CCOCC4)c(=O)c3=O)cc2)c1`, the z-score is -0.157.

For `O=C(O)CCn1cc(/C=C/C(=O)c2ccc(Cl)cc2)c(-c2ccc(Br)cc2)n1`, the z-score is -0.772.

`COc1ccc(CNC(=O)c2cnc3cc(C)ccn3c2=O)cc1` showed a z-score of -0.0151.

For the molecule `NC(=O)CSc1nnc(-c2ccccc2Br)n1-c1cccc(C(F)(F)F)c1`, the z-score is -0.416.

`COc1ccc(-n2c(C)c(C(C)=O)c(C(C)=O)c2C)cc1OC` yielded a z-score of 0.505.

As for `CCCC/C(O)=C/c1nc2ccccc2[nH]c1=O`, the z-score is 0.252.

The molecule `Fc1ccc(Cl)cc1/C=N/n1cnnc1SCc1ccccc1` gave a z-score of -0.0925.
